The values that follow come from the supplement of paper PMC7826260.

Common to all, as to assay: uncleaved DNA left, log2 of reads against the no-enzyme library (log2 ratio); higher = less cleavage (more negative = more Rep cleavage of the k-mer); sequences stand for … in CTCGTCCG…ACCGGAGA
Assay [1] has as its system T1, Rep nickase domain of Muscovy duck circovirus.
T1 sequence (Rep 1-111, printed without the tag): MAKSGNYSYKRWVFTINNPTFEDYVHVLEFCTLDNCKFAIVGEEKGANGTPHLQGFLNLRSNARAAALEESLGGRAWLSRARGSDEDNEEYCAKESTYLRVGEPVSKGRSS
Here is the method:
(§1)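 A pool of 90-nt single-stranded DNAs with seven random bases just before the constant AC of the nick site (name = the seven bases) was cut by 3 µM recombinant His6-SUMO-tagged Rep nickase domain (300 nM DNA, 50 mM HEPES pH 8.0, 50 mM NaCl, 1 mM MnCl2, 1 h, 37 °C, three replicates). Uncut DNA was amplified and sequenced.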

Assay [2] concerns T2, Rep nickase domain of banana bunchy top virus.
T2 sequence (Rep 1-94, printed without the tag): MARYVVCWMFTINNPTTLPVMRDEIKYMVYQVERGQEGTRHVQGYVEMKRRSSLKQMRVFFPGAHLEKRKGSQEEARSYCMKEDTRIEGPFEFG
Here is the method:
as §1

In assay [3] the test system is T3, Rep nickase domain of cabbage leaf curl virus.
T3 sequence (Rep 1-116, printed without the tag): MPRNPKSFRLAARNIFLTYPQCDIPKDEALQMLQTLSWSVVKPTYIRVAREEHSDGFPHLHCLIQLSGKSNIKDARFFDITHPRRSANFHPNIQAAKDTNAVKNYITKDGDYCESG
As for the experimental part: as §1
The subject of assay [4] is T4, Rep nickase domain of chickpea chlorotic dwarf virus.
T4 sequence (Rep 1-124, printed without the tag): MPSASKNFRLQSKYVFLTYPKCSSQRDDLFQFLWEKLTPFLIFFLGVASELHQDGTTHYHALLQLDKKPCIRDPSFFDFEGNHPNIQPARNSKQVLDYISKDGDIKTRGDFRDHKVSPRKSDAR
As for the experimental part:
as §1

Assay [5] concerns T5, Rep nickase domain of faba bean necrotic yellows virus.
T5 sequence (Rep 1-98, printed without the tag): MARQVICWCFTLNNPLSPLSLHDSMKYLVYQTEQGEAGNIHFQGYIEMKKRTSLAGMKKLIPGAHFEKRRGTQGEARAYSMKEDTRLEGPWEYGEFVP
As for the experimental part: as §1
Assay [6] deals with T6, Rep nickase domain of maize striate mosaic virus.
T6 sequence (Rep 1-117, printed without the tag): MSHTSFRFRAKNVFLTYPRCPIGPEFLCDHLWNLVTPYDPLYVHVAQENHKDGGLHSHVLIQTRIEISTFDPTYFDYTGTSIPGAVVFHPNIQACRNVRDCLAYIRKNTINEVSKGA
Here is the method: as §1
Assay [7] concerns T7, Rep nickase domain of porcine circovirus 2.
T7 sequence (Rep 2-116, printed without the tag): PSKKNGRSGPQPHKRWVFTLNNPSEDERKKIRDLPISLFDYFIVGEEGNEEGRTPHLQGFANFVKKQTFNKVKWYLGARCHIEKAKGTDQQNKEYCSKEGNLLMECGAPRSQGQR
As for the experimental part:
as §1

The subject of assay [8] is T8, Rep nickase domain of tomato golden mosaic virus.
T8 sequence (Rep 1-124, printed without the tag): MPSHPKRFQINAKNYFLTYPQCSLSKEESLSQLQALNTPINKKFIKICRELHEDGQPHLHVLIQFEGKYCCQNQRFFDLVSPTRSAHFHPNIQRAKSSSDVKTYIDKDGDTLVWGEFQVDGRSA
Here is the method:
as §1

Assay [9] concerns T9, Rep nickase domain of tomato yellow leaf curl virus.
T9 sequence (Rep 1-136, printed without the tag): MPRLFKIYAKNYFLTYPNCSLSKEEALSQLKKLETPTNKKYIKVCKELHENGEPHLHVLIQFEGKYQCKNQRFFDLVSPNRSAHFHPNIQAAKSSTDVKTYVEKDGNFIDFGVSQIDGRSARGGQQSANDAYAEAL
As for the experimental part: as §1
For assay [10], the system named is T10, Rep nickase domain of wheat dwarf virus.
T10 sequence (Rep 1-137, printed without the tag): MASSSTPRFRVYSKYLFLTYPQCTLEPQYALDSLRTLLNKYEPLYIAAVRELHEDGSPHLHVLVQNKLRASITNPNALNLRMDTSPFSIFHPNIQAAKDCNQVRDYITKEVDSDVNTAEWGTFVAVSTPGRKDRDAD
Here is the method: as §1

The list shows a part of the results. The data describe in vitro nicking of single-stranded DNA by Rep domains at 3 µM enzyme and 37 °C for 1 h; the strands have 90 letters, of which the middle is given. The score is log2 (uncut reads / reads without enzyme); more negative means more cut, near 0 not cut, and no call is made. Counts are relative to all reads; uncut strands gain when others are lost, and binding without cutting may add a little.

As to CGACTGA, the “uncleaved DNA left (log2)” value in assay [1] is -0.00659; in assay [2], 0.00387; in assay [3] it was -0.0184; in assay [4], 0.62; in assay [5], -0.102; in [6], 1.69. In addition, the “uncleaved DNA left (log2)” value in assay [7] was -0.0349; in [8], -0.0195; in [9], -0.152; in assay [10] it was 0.0375.
Turning to AGGGGGA, the “uncleaved DNA left (log2)” value in [1] is 0.0439; in assay [2], 0.0354; in assay [3], 0.313; in assay [4] it was 0.927; in [5], 0.0291; in assay [6], 1.21. The “uncleaved DNA left (log2)” value in assay [7] is 0.185; in assay [8] it was 0.0863; in assay [9], -0.122; in [10], 0.0691.
For the sequence CGCTGCC, the “uncleaved DNA left (log2)” value in [1] was -0.196; in [2] it was -0.141; in [3], -0.172; in assay [4], -0.0524; in [5] it was -0.0389; in [6] it was -0.153. Also, the “uncleaved DNA left (log2)” value in assay [7] was -0.13; in assay [8], -0.239; in assay [9] it was -0.138; in assay [10], -0.231.
With AAATACT, the “uncleaved DNA left (log2)” value is -4.5 in assay [1]; -3.47 in [2]; -4.89 in assay [3]; -4.02 in [4]; -0.89 in [5]; -3.56 in assay [6]. Moreover, the “uncleaved DNA left (log2)” value in [7] was -4.49; in assay [8], -4.01; in assay [9] it was -3; in [10] it was -4.58.
Turning to ACTCTGT, the “uncleaved DNA left (log2)” value in assay [1] is 0.0509; in assay [2], -0.132; in [3], -0.304; in assay [4] it was -0.76; in [5], -0.037; in [6], -0.79. Besides, the “uncleaved DNA left (log2)” value in assay [7] is -0.0796; in [8], 0.0715; in assay [9], -0.143; in assay [10] it was -0.0651.
Regarding TTCATTG, the “uncleaved DNA left (log2)” value was 0.0171 in [1]; -0.0864 in assay [2]; -0.555 in assay [3]; -0.722 in [4]; -0.0166 in assay [5]; -1.16 in [6]. In addition, the “uncleaved DNA left (log2)” value in assay [7] is 0.12; in assay [8] it was -0.0583; in assay [9], -0.0795; in [10] it was -0.0649.
Consider TTAGGTC, for which the “uncleaved DNA left (log2)” value in [1] is 0.0437; in [2], -0.00408; in assay [3] it was 0.557; in assay [4] it was 0.923; in [5], 0.00177; in [6], 1.39. The “uncleaved DNA left (log2)” value in [7] is -0.102; in [8], 0.119; in assay [9], -0.0347; in assay [10], 0.00458.
Regarding ATGGGCC, the “uncleaved DNA left (log2)” value was 0.134 in assay [1]; 0.111 in [2]; 0.0947 in [3]; 0.491 in assay [4]; 0.0313 in assay [5]; 0.105 in assay [6]. The “uncleaved DNA left (log2)” value in assay [7] was 0.108; in assay [8], 0.0198; in assay [9], 0.106; in assay [10], 0.0883.
For TCCATTA, the “uncleaved DNA left (log2)” value in assay [1] was -0.133; in [2], -0.208; in assay [3], -0.0468; in assay [4], -1.13; in assay [5], 0.0514; in assay [6], -0.931. Further, the “uncleaved DNA left (log2)” value in [7] was -0.117; in assay [8] it was -0.133; in assay [9] it was 0.0314; in assay [10] it was -0.143.
Take TATCACT: the “uncleaved DNA left (log2)” value is -0.314 in [1]; -0.0842 in assay [2]; -0.488 in assay [3]; -2.84 in assay [4]; -0.0231 in assay [5]; -0.501 in assay [6]. The “uncleaved DNA left (log2)” value was -2.25 in [7], -0.157 in [8], 0.00862 in assay [9] and -0.0358 in assay [10].
For the sequence GACCCAA, the “uncleaved DNA left (log2)” value in assay [1] is 0.0713; in assay [2], 0.186; in assay [3], 0.629; in assay [4], 1.1; in assay [5], 0.126; in assay [6] it was 1.23. In addition, the “uncleaved DNA left (log2)” value is 0.0586 in assay [7], 0.104 in assay [8], 0.212 in [9] and 0.282 in assay [10].
As to GGAAGGC, the “uncleaved DNA left (log2)” value in assay [1] is -0.0567; in [2], -0.108; in assay [3], 0.652; in [4], 1.42; in [5], -0.0489; in assay [6], 1.78. Further, the “uncleaved DNA left (log2)” value in [7] was 0.12; in [8], -0.0603; in [9], -0.0883; in assay [10] it was 0.0463.
For the sequence CATCGTT, the “uncleaved DNA left (log2)” value in [1] is -0.0294; in assay [2], -0.155; in [3], -0.564; in assay [4], -2.42; in assay [5] it was -0.0663; in assay [6], -0.93. Moreover, the “uncleaved DNA left (log2)” value is -2.26 in assay [7], -0.122 in assay [8], -0.137 in assay [9] and -0.142 in assay [10].
TGAGCTT: the “uncleaved DNA left (log2)” value is 0.0209 in assay [1]; -0.148 in [2]; 0.147 in [3]; -0.704 in assay [4]; -0.0741 in assay [5]; 0.69 in [6]. The “uncleaved DNA left (log2)” value in [7] was -0.133; in assay [8], 0.00294; in [9] it was 0.00094; in assay [10], -0.139.
For GAACTGA, the “uncleaved DNA left (log2)” value in assay [1] stood at 0.098; in assay [2], 0.191; in [3] it was 0.211; in assay [4], 0.766; in [5], 0.135; in assay [6] it was 1.57. Also, the “uncleaved DNA left (log2)” value in assay [7] was 0.151; in assay [8], 0.121; in assay [9], 0.037; in assay [10] it was 0.124.
